Consider 72 sequences from the supplement of paper PMC10338343.

± gives the standard deviation. In all, about 6,600 sequences were measured (“pre-steady-state target cleavage rate”: median about 0.07, highest 2% from about 0.72 on). This is a selection; strong and weak results do not stand in their true shares.
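Further: 1 nM active piRISC with 0.1 nM target library at 33 °C single turnover.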

The subject of the assay is MIWI (PIWIL1) piRISC loaded with Kctd7 piRNA (30 nt). As to the kind of experiment: pre-steady-state target cleavage rate (min^-1); MIWI and MILI are mouse PIWI proteins and EfPiwi is from a freshwater sponge; tags in brackets are library labels; higher = faster piRNA-guided slicing of the target. Particulars: guide: Kctd7 piRNA 5'p-UGUUAAUCUCUCAGAGAAGGUGACAGUGAU; auxiliary factor: 500 nM mouse GTSF1. The method in brief: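 The pre-steady-state cleavage rate was derived from a burst-and-steady-state fit of Cleave-'n-Seq data. For these assays, 1 nM active affinity-purified piRISC loaded with a single synthetic guide was mixed with […] a transcribed, DNA-blocked target RNA library in HEPES–potassium acetate buffer at 33 °C, with or without 500 nM GTSF1 partner protein, for 0–8 or 0–960 min. Sequencing counts of uncleaved targets were normalised to depth and to weakly complementary targets, and k3 was capped at 0.0001 min^-1 after three trials were pooled.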
For the sequence AUCAGUCUCACCUUCUCUGAGAGAUUAACA, the “pre-steady-state target cleavage rate” value came out at 0.675 ± 0.027.
On to UAGUGUGUCAGCAUCUCUGAGAGAUUAACA, for which the “pre-steady-state target cleavage rate” value amounted to 0.368 ± 0.037.
The result for UACACUGUCUGCUUCUCUGAGAGAUUAUGA reads 0.0251 ± 0.0074; that for UAGUGACAGUGCUUCUCUGAGAGAUUCACA, 0.008 ± 0.003.
For the sequence UUCAGACUCACCUUCUCUGAGAGAUUAUGA, the “pre-steady-state target cleavage rate” value is 0.0522 ± 0.01.
On to UAGUGAGUCACCUUGUCAGAGAGAUUAACA, for which the “pre-steady-state target cleavage rate” value amounted to 0.102 ± 0.01.
In the case of UAGAGUGUCACCUUCUCUGAGAGAUUAAGA, the “pre-steady-state target cleavage rate” value amounted to 0.192 ± 0.034.
In the case of UACACUGUCACCUUCUCUGAGAUGAUUAACA, the “pre-steady-state target cleavage rate” value was found to be 0.0639 ± 0.023.
With UAGUCUGUCACCUACACUGAGAGAUUAACA, the “pre-steady-state target cleavage rate” value came to 0.218 ± 0.017.
Next, UAGUGAGUCACCUUCUCUGAGAGAUAAUCA: 0.0599 ± 0.013; UUCACUGUCACCUUCUCAGACAGAUUAACA: 0.118 ± 0.014.
In the case of UAGUGACUCACCUACUCUGAGAGAUUAUCA, the “pre-steady-state target cleavage rate” value is 0.233 ± 0.049.
As for UAGUCUGUCUCCUUCUCUGAGUGAUUAACA, the “pre-steady-state target cleavage rate” value turned out to be 0.0221 ± 0.0035.
With UAGUGAGUCACCUUCUCAGAGAGAUUUUGA, the “pre-steady-state target cleavage rate” value worked out at 0.0623 ± 0.021.
As to UAGACUGUCACCUUCUCUGAGAGACUUAACA, the “pre-steady-state target cleavage rate” value came to 0.213 ± 0.024.
The result for AAGACUGUCACCUUCUCUGAGAGAUUAAGA reads 0.238 ± 0.037.
For UAGACUGUCACCUUGUCUGAGAGAUAAACA, the “pre-steady-state target cleavage rate” value turned out to be 0.408 ± 0.08.
For UAGUGACAGUCCUUCACUGACAGAUUAACA, the “pre-steady-state target cleavage rate” value is 0.00506 ± 0.0036.
In the case of UACACACACACCUUCUCUGAGAGAUUUUGA, the “pre-steady-state target cleavage rate” value is 0.0282 ± 0.012.
Turning to UAGUCUGUCACCUUCUCUGACACAUUAACA, the “pre-steady-state target cleavage rate” value worked out at 0.0718 ± 0.0067.
Next, UAGACUGUCACCUUCUCUGAGACAUUAACA: 0.0657 ± 0.0098.
Next, UAGUGUGUCUCCUUCUCUGAGACAUUAACA: 0.0238 ± 0.0061; UACACUGUCACCUUCUCUGAGAGAAUAUCA: 0.171 ± 0.047.
Next, AUCACUGUCACCUUCUCUGAGUGAUUUACA: 0.0386 ± 0.01; UAGUCUGUCACCUUCUCUGAGAGAUAUAACA: 0.4 ± 0.044; UACACUGUCUCCUUCUCUGAGAGAUAAACA: 0.189 ± 0.029.
As to UAGUCUGUCACCUUCUUGAGAGAUUAACA, the “pre-steady-state target cleavage rate” value came out at 0.0378 ± 0.013.
As for UUCACUGAGACCUUCUCUGAGAGAUUAAGA, the “pre-steady-state target cleavage rate” value amounted to 0.0958 ± 0.022.
As for UUCACUGUCACCUUCUCUCUCAGAUUAACA, the “pre-steady-state target cleavage rate” value worked out at 0.00363 ± 0.0035.
In the case of UAGUGAGUCACCUUCUCUGAGAGACUUAACA, the “pre-steady-state target cleavage rate” value turned out to be 0.0994 ± 0.018.
Next, UAGACUGUCACCUUCUCUGAGAGAAUAACA: 0.515 ± 0.091; AUCACUGUCACCUUCUCUGAGAGAUUAAACA: 0.462 ± 0.032.
On to UAGACUGUCACCUUCUGUGAGUGAUUAACA, for which the “pre-steady-state target cleavage rate” value was determined as 0.016 ± 0.0029.
With AUCACUGUCACCUUCUCUGAGAGAGUAACA, the “pre-steady-state target cleavage rate” value worked out at 0.397 ± 0.049.
As to AUCACAGUGACCUUCUCUGAGAGAUUAACA, the “pre-steady-state target cleavage rate” value was found to be 0.515 ± 0.026.
As to UAGUCUGUAACCUUCUCUGAGAGAUUAACA, the “pre-steady-state target cleavage rate” value worked out at 0.644 ± 0.037.
The result for AUCACUGUCACCUUCUCAGACAGAUUAACA reads 0.123 ± 0.01; that for UAGUCAGUCACCUUCUCUGAGAGAUUAUGA, 0.124 ± 0.024; that for UAGUGACAGUGGAACUCUGAGAGAUUACA, less than 0.0001.
On to UACACUGUCGACCUUCUCUGAGAGAUUAACA, for which the “pre-steady-state target cleavage rate” value was 0.229 ± 0.026.
In the case of UAGUCUGUCACCUUCACUGAGAGAAUAACA, the “pre-steady-state target cleavage rate” value was 0.146 ± 0.033.
For UAGUCUGUCACCUUCUCUGAGAGUAAUUGA, the “pre-steady-state target cleavage rate” value was 0.0434 ± 0.015.
As for UACUCUGUCACCUUGUCUGAGAGAUUAACA, the “pre-steady-state target cleavage rate” value amounted to 0.315 ± 0.047.
UAGUGAGUCACCUUCUCUCAGAGAUAAACA: the “pre-steady-state target cleavage rate” value stood at 0.0437 ± 0.011.
As for UAGUGACAGACGUUCUCUGAGAGAUAAACA, the “pre-steady-state target cleavage rate” value worked out at 0.00538 ± 0.0027.
With AACACUGUCACCAUCUCUGAGAGAUUAACA, the “pre-steady-state target cleavage rate” value is 0.77 ± 0.035.
In the case of AUCACUGUCGACCUUCUCUGAGAGAUUAACA, the “pre-steady-state target cleavage rate” value was found to be 0.172 ± 0.017.
Next, UAGUGACACACCUUCAGUGAGAGAUUAAGA: 0.00796 ± 0.0045; UUCACUGUCACCAUCUCAGAGAGAUUAACA: 0.11 ± 0.014; UAGUGACAGACCUCUCUCUGAGAGAUUAACA: 0.0185 ± 0.0034.
Turning to UAGUGUGUCACCUUCUCUGAGAGUAUUUGA, the “pre-steady-state target cleavage rate” value came to 0.0748 ± 0.029.
Next, AUCACUGUCACCUACUCUGAGAGAUUAUCA: 0.272 ± 0.038.
Regarding UAGUGACACACCUUCUGUGAGAGAUUUACA, the “pre-steady-state target cleavage rate” value was 0.0925 ± 0.013.
Take UAGUGACUGUCCUUCUCUGAGAGAUUAACA: the “pre-steady-state target cleavage rate” value stood at 0.239 ± 0.029.
Take UAGUGUGUCACCAUGUCUGAGAGAUUAACA: the “pre-steady-state target cleavage rate” value was 0.105 ± 0.012.
For UAGUGACAGUGGAAGAGUGACAGAAUAACA, the “pre-steady-state target cleavage rate” value was less than 0.0001.
UAGUGUGUCACCAUCACUGAGAGAUUAACA: the “pre-steady-state target cleavage rate” value worked out at 0.407 ± 0.043.
Take UAGUGACACACCAUCUCUCAGAGAUUAACA: the “pre-steady-state target cleavage rate” value turned out to be 0.0101 ± 0.0048.
Next, UAGACUGUCAGCCUUCUCUGAGAGAUUAACA: 0.231 ± 0.024.
In the case of UUCACUGUCACCUUCUCUGAGCAGAUUAACA, the “pre-steady-state target cleavage rate” value amounted to 0.00797 ± 0.0019.
UACACUGUCACCUUCUCUGAGUAGAUUAACA: the “pre-steady-state target cleavage rate” value worked out at 0.0159 ± 0.0063.
Consider UACACUGUCACCUUCUCUGAGUCUUUAUGA, for which the “pre-steady-state target cleavage rate” value worked out at 0.00482 ± 0.0034.
On to UAGUGACUCACCUUCUCUGUGAGAUUAAGA, for which the “pre-steady-state target cleavage rate” value was found to be 0.0443 ± 0.0087.
For the sequence UAGUGUGUCACCUUCUCUGACAGAUAAACA, the “pre-steady-state target cleavage rate” value worked out at 0.0549 ± 0.013.
The result for UACACUGUCACCUUCUCUGAGACAUAAACA reads 0.0579 ± 0.014; that for UAGUGAGUCACCUUGUCUCAGAGAUUAACA, 0.0282 ± 0.0037; that for UUCACUGUCACCAUCUCUGAGAGAUUAAGA, 0.134 ± 0.025.
Take UAGUGAGUCUCCUUCUCUGAGAGAUAAACA: the “pre-steady-state target cleavage rate” value came out at 0.0762 ± 0.014.
Regarding UACACUGUCACCUUCUCUGAGAGUUUAUGA, the “pre-steady-state target cleavage rate” value stood at 0.182 ± 0.054.
With UACUCUGUCACCUUCUCUGAGAGAUUUACA, the “pre-steady-state target cleavage rate” value is 0.409 ± 0.048.
On to UAGUCUGUCACCUUCUCUGAGACAUAAACA, for which the “pre-steady-state target cleavage rate” value was 0.0237 ± 0.0074.
Turning to UUCACUGUCACCUUCUCUGAGAAAUUAACA, the “pre-steady-state target cleavage rate” value worked out at 0.273 ± 0.034.
